Measurements: PubChem BioAssay AID624296 (National Center for Advancing Translational Sciences (NCATS), 2012)
Among all 350,000 compounds or so, about 9,900 (2.8%) were called active. Inconclusive results, whose numbers are uncertain, are shown with a selection of clear calls. Calls follow the shape of the dose curve; as a rule, active = well fitted activation curve with a large enough effect; inconclusive = small, poorly fitted or top-dose-only effect; inactive = no such curve, though single readings can be large or run the other way. No potency is given beside an inconclusive call; the fits are too rough.

Assay: A quantitative high throughput screen for small molecules that induce DNA re-replication in MCF 10a normal breast cells. Also: nearly all actives have a fitted effect of over 50% in size. As to activity, positive = re-replication: % of control where 0% means no effect.
Conditions: MCF 10A DNA re-replication, Hoechst nuclear intensity, 48 h; activity, positive = re-replication: at 46.1 µM (top of the series)
Potency is read from the fitted curve at half-maximal effect; tags tell the direction and shape of the fitted curve.

Compound | Potency | activity, positive = re-replication
O=C1CC(c2ccccc2)=C(c2ccccc2)C1c1ccccc1 (stereo unspecified) | inconclusive [activator, single point] | –
CCOC(CNc1cc(C)nc2c(-c3ccccc3OC)c(C)nn12)OCC | – | inactive: 7.01%
CCOc1cc(/C=N/Nc2nc(=O)[nH]nc2C)ccc1O | inconclusive [activator, single point] | –
COc1ccc(C2=NN(C(=O)CN3CCCCC3)C(c3ccc(C)cc3)C2)cc1 (stereo unspecified) | – | inactive: -2.96%
COc1ccc(OCC(=O)Nc2ccc(S(=O)(=O)N3CCOCC3)cc2)cc1 | – | inactive: -0.432%
c1ccc(-n2nnnc2NCCc2c[nH]c3ccccc23)cc1 | – | inactive: 14.2%
Cc1cc([N+](=O)[O-])c(C(C)(C)C)cc1N | – | inactive: 4.4%
CCN(CC)CCNc1c2c(c(C#N)c3nc4ccccc4n13)CCCC2 | inconclusive [activator, full curve] | –
COc1ccc(CCN2CC(C(=O)NCCN3CCCC3=O)CCC2=O)cc1 (stereo unspecified) | – | inactive: -1.95%
O=C(CCSc1nc(-c2ccco2)cc(C(F)(F)F)n1)N1CCN(c2ccccn2)CC1 | inconclusive [activator, full curve, poor fit] | –
O=C(COc1ccccc1)NCCSCc1ccccc1Cl | inconclusive [activator, single point] | –
CNC(=S)N/N=C/c1ccc(OCC(=O)Nc2c(C)cc(C)cc2C)c(OC)c1 | inconclusive [activator, single point] | –
CC(C)CN(C(=O)CSc1nc(-c2ccccc2)cn1N)c1c(N)n(Cc2ccccc2)c(=O)[nH]c1=O | – | inactive: 2.54%
O=C(Nc1ccccc1)Nc1cccc(-c2nnco2)c1 | inconclusive [activator, single point] | –
COc1ccc(C2CC(=O)Nc3cc(OC)c(OC)cc32)cc1Br (stereo unspecified) | inconclusive [activator, single point] | –
NS(=O)(=O)c1ccc(CCNC(=O)NC2CCCCC2)cc1 | inconclusive [activator, single point] | –
O=S(=O)(c1ccc(-c2cn3ccccc3n2)cc1)N1CCOCC1 | – | inactive: 13.9%
CC(C)OCCCNC(=O)CN1C(=O)/C(=C/c2ccccc2F)Oc2ccccc21 | inconclusive [activator, single point] | –
CCCn1cnc2c(Sc3c([N+](=O)[O-])ncn3C)nc(N)nc21 | inconclusive [activator, single point] | –
CCOC(=O)N/N=C\c1ccc(-c2cc(Cl)ccc2Cl)o1 | inconclusive [activator, partial curve, poor fit] | –
Cc1ccc(-n2c(O)c(C=Nc3ccc4c(c3)OCO4)c3ccccc3c2=O)cc1C | – | inactive: -0.819%
CCC(C)N(C(=O)c1csnn1)C(C(=O)NCc1ccc(F)cc1)c1ccccc1F (stereo unspecified) | inconclusive [activator, single point] | –
O=C(Cc1cccc2ccccc12)N/N=C/C=C/c1cccc([N+](=O)[O-])c1 | – | inactive: 12.7%
CC(C)(C)CC(C)(C)NCC(O)COCCOc1ccc(Br)cc1 (stereo unspecified) | inconclusive [activator, single point] | –

Compound | Potency | activity, positive = re-replication
Cc1ccccc1Cn1cnc2ccccc21 | inconclusive [activator, partial curve, poor fit] | –
CC(C)(C)[C@H]1COC(=O)[C@@H](Cc2ccc(F)cc2)C/C=C\C[C@@H](CC(=O)N[C@H](CO)Cc2ccccc2)C(=O)N1 | inconclusive [activator, single point] | –
O=C(/C=C/c1ccccc1)NC(NC(=S)Nc1ccc(Cl)cc1)C(Cl)(Cl)Cl (stereo unspecified) | active: 16.4 µM | –
O=C(Nc1ccc(CN2CCOCC2)cc1)c1cc2ccccc2o1 | – | inactive: -4.17%
CC(=O)c1sc(C(C)(C)C)cc1NC(=O)/C=C/C(=O)O | inconclusive [activator, partial curve, poor fit] | –
COCCOC(=O)C1=C(C)NC2=C(C(=O)CCC2)C1c1cc2c(cc1Br)OCO2 (stereo unspecified) | inconclusive [activator, partial curve, poor fit] | –
Cn1nc(-c2ccc(Cl)cc2)c2cc(C(=O)NC3CC3)sc21 | active: 6.51 µM | –
Nc1ccccc1SC(C[N+](=O)[O-])c1ccccc1 (stereo unspecified) | active: 10.3 µM | –
CCOC(=O)/C(=N\Nc1ccc(OC)cc1)c1csc(Nc2ccccc2)n1 | inconclusive [activator, single point] | –
O=C(O)CCCN=CC1=C(O)CNC1=O | – | inactive: 4.16%
Nc1cc(Cc2ccccc2)ccc1O | inconclusive [activator, single point] | –
c1ccc2[nH]c(CSc3ncnc4c3oc3ccccc34)nc2c1 | inconclusive [activator, single point] | –
CCC1CCCCN1CCCNC(=O)CS(=O)Cc1nc(-c2ccc(OC)c(OC)c2)oc1C (stereo unspecified) | inconclusive [activator, single point] | –
O=C1CCCCN1CCCC(=O)N1CCCC(Nc2ccc(F)c(F)c2)C1 (stereo unspecified) | inconclusive [activator, single point] | –
CCOC(=O)c1cc(-c2ccc(C)cc2)n(CCC(=O)N2CCN(c3ccccn3)CC2)c1C | inconclusive [activator, partial curve] | –
CCOC(=O)/C(=N\Nc1ccccc1Cl)N1CCN(Cc2ccccc2)CC1 | inconclusive [activator, single point] | –
Cc1ccc(-c2csc(NC(=O)c3ccc(C)o3)n2)cc1 | inconclusive [activator, single point] | –
Cc1c(-c2nc(N)nc(Nc3ccccc3)n2)oc2ccccc12 | inconclusive [activator, single point] | –
Cc1cc(C(=O)NNC(=O)Cc2ccc(Cl)cc2)c(C)o1 | – | inactive: -2.29%
CCc1nnc(N2CCN(c3ncnc4c3oc3ccccc34)CC2)s1 | inconclusive [activator, partial curve, poor fit] | –
CC(Oc1ccccc1)C(=O)Nc1oc(-c2ccco2)c(-c2ccco2)c1C#N (stereo unspecified) | inconclusive [activator, single point] | –
COc1ccc(/C=C2\SC(=O)N(CCC(=O)NCCCn3ccnc3)C2=O)cc1 | inconclusive [activator, partial curve, poor fit] | –
NNC(=O)c1c(O)c2cccc3c2n(c1=O)CCC3 | active: 20.6 µM | –
CCCC(C(=O)NC(C)(C)C)N(Cc1ccccc1Cl)C(=O)c1snc(C(N)=O)c1N (stereo unspecified) | active: 13 µM | –

Compound | Potency | activity, positive = re-replication
CCOC(=O)c1sc(NC(=O)CSC(=S)N2CCN(C)CC2)nc1C | – | inactive: 16.3%
CC(=O)Cc1nsc(NC(=O)c2ccc(-c3ccc(Cl)cc3Cl)o2)n1 | inconclusive [activator, partial curve, poor fit] | –
S=c1[nH]nc(-c2ccc(Cl)cc2)n1-c1cccnc1 | – | inactive: -2.09%
CN(CCCN1CCOCC1)C(=O)c1ccc2nc(Cc3cccc(Cl)c3)oc2c1 | inconclusive [activator, partial curve] | –
Cc1ccc(C(=O)N/N=C/c2ccc3c(c2)OCO3)o1 | – | inactive: -4.65%
COc1ccc(/C(C)=N/NC(=O)c2ccc(CSc3cccc4cccnc34)cc2)cc1OC | – | inactive: 22.1%
O=C(Cn1cnc2c(OCc3ccccc3)ncnc21)NCCCn1ccnc1 | – | inactive: -1.32%
COc1ccc(N/C(N)=N/c2nc(C)cc(C)n2)c(OC)c1 | inconclusive [activator, partial curve, poor fit] | –
Cc1cc2nc(C3CCCN(C(=S)Nc4ccccc4)C3)[nH]c2cc1C (stereo unspecified) | – | inactive: 1.34%
CC(=O)N(C(C)=O)c1c(C#N)c(C)n(-c2ccccc2)c1C(=O)c1ccccc1 | active: 6.51 µM | –
COc1ccc(/C=N\NC(=O)c2ccccc2F)cc1COc1ccc(F)cc1F | inconclusive [activator, full curve, poor fit] | –
COc1ccc(NC2C=CS(=O)(=O)C2)c(OC)c1 (stereo unspecified) | inconclusive [activator, single point] | –
CC(Sc1ccc(Cl)cc1)C(=O)Nc1ccccc1-c1ccccc1 (stereo unspecified) | inconclusive [activator, single point] | –
O=C(CC1Sc2ccccc2NC1=O)NNc1cccc(Cl)c1Cl (stereo unspecified) | – | inactive: 20.3%
COc1ccc(Br)cc1CN(C)CC(=O)Nc1cc(Cl)ccc1Cl | inconclusive [activator, full curve, poor fit] | –
CC(=O)Nc1ccc(NC(=O)CCNS(=O)(=O)c2cccc3nsnc23)cc1 | inconclusive [activator, single point] | –
O=C1CC(SC(=Nc2ccccc2)Nc2ccccc2)C(=O)N1c1ccc(Cl)c(Cl)c1 (stereo unspecified) | inconclusive [activator, partial curve] | –
CCOC(=O)N(NC(=O)C(O)(CC(C)C)CC(C)C)c1ccccc1 | inconclusive [activator, full curve, poor fit] | –
CN(C)c1cc(O)c(C(=S)Nc2ccccc2)c(N(C)C)c1 | inconclusive [activator, single point] | –
C[n+]1ccc(/C=C/c2ccccc2O)c2ccccc21 | inconclusive [activator, partial curve, poor fit] | –
COCCNC(=O)/C(C#N)=C/c1c(N2CCCCCC2)nc2c(C)cccn2c1=O | – | inactive: -1.69%
S=C(NCCc1ccc(Cl)cc1)NC1CCCCC1 | inconclusive [activator, full curve, poor fit] | –
Cc1cc(C)c(NC(=O)CNC(=O)COC(=O)CN2C(=O)NC3(CCCC3)C2=O)c(C)c1 | – | inactive: 0.954%
